Results taken from publication PMC9769921, “Characteristics of the GlnH and GlnX Signal Transduction Proteins Controlling PknG-Mediated Phosphorylation of OdhI and 2-Oxoglutarate Dehydrogenase Activity in Corynebacterium glutamicum” (Microbiology Spectrum, 2022).

Test system: lipoprotein signal peptidase LspA (GlnH signal peptide cleavage)
Assay: Western blot of Strep-tagged GlnH after globomycin addition (lipoprotein maturation)
Conditions: 50 μg/mL globomycin, C. glutamicum ΔglnH/pAN6-glnH, samples 1 h, 2 h, 3 h after addition
Description: C. glutamicum ΔglnH/pAN6-glnH, which encodes a C-terminally Strep-tagged GlnH, was cultivated in CGXII-glucose medium supplemented with 1 mM IPTG (isopropyl-β-D-thiogalactopyranoside) and 50 μg/mL globomycin to prevent lipoprotein maturation. Crude extracts of samples taken before and hourly after globomycin addition were analyzed by Western blot analysis with StrepTactin-alkaline phosphatase conjugate. […] This enlarged variant presumably represents the diacylglyceryl prolipoprotein form of GlnH still containing the signal peptide. Further support for this interpretation was obtained by Western blot analysis of the strain C. glutamicum ΔglnH/pAN6-glnH-C27A, in which C27 was changed to alanine, thereby preventing thiol modification of C27 and cleavage of the signal peptide. In this case, only the GlnH prolipoprotein was detected (Fig. 5C).
To analyze if GlnH is a lipoprotein, the C. glutamicum strains ΔglnH/pAN6-glnH and ΔglnH/pAN6-glnH-C27A were cultivated in CGXII medium with 4% (wt/vol) glucose and 1 mM IPTG to induce target gene expression. […] Crude cell extract samples (10 μg protein) taken prior to addition of globomycin and 1 h, 2 h, and 3 h thereafter were analyzed by Western blotting using a Strep-Tactin-horseradish peroxidase (HRP) conjugate (IBA Lifesciences, Göttingen, Germany) to detect Strep-tagged GlnH.

CCCCCCC1OC(=O)CNC(=O)C(C(C)O)NC(=O)C(CO)NC(=O)C(C(C)CC)NC(=O)C(CC(C)C)N(C)C(=O)C1C (stereo not shown) [globomycin]
effect on GlnH maturation (Western blot): a GlnH variant with a larger apparent mass became increasingly visible
